Source: PMC7052135
These are yes or no findings as the source states them, for the method shown. For some assays here: In cells and extracts the contact can be indirect. Some binding calls cover weakened binding; strength is not graded here. For some assays here: Where a sequence is shown, tags or fusion partners need not be part of it.

The chains behind the UniProt entries cited, without tags or fusion partners. Where a name states a change or a piece, a line headed by the entry shows the natural chain unless it says otherwise. A line that says so, or that is headed by a name, gives the form on record, which may keep a tag or linker. Residues count along the entry.
UniProt P42224: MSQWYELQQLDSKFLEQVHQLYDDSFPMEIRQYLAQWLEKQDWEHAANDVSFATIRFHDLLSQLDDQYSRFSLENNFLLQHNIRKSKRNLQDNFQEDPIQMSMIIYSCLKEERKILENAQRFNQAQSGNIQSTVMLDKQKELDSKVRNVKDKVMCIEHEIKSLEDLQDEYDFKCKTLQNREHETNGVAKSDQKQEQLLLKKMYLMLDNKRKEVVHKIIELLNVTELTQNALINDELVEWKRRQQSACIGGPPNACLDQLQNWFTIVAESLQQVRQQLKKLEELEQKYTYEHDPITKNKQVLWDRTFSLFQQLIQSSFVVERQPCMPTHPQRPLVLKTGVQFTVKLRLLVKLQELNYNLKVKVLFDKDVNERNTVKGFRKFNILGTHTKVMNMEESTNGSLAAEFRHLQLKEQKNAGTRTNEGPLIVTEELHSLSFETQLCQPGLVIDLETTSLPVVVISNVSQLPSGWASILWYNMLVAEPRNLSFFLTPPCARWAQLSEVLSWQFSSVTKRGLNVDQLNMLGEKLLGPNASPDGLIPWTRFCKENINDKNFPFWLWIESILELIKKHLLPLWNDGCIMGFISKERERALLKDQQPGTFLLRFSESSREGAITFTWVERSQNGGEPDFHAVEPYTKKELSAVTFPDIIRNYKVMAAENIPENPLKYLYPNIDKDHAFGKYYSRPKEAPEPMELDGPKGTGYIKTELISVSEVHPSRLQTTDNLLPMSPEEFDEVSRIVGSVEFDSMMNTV
STAT1 with deletion of the TAD domain (amino acids, 703–750): residues 1-702 of P42224
Myc-STAT1-K511/652R (P42224, form named): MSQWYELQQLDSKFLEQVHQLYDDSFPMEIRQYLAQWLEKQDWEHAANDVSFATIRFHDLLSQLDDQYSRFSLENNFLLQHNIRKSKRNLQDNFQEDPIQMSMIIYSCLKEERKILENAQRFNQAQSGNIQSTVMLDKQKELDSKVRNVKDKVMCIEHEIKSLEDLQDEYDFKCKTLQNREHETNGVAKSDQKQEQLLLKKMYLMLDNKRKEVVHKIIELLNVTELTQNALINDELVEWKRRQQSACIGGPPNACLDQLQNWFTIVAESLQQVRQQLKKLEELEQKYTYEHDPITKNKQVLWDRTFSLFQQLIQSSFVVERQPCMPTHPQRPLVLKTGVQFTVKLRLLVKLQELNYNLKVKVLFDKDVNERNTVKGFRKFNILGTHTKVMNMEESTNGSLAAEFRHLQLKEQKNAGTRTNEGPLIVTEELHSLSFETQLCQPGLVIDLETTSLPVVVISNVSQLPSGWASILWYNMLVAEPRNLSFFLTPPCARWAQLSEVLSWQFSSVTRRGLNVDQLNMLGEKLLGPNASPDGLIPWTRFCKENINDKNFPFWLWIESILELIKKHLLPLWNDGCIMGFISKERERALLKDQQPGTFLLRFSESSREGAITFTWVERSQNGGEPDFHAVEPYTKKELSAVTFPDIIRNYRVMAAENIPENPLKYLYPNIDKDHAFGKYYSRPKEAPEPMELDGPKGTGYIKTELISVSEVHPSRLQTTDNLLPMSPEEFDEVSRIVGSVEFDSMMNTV
UniProt P23458: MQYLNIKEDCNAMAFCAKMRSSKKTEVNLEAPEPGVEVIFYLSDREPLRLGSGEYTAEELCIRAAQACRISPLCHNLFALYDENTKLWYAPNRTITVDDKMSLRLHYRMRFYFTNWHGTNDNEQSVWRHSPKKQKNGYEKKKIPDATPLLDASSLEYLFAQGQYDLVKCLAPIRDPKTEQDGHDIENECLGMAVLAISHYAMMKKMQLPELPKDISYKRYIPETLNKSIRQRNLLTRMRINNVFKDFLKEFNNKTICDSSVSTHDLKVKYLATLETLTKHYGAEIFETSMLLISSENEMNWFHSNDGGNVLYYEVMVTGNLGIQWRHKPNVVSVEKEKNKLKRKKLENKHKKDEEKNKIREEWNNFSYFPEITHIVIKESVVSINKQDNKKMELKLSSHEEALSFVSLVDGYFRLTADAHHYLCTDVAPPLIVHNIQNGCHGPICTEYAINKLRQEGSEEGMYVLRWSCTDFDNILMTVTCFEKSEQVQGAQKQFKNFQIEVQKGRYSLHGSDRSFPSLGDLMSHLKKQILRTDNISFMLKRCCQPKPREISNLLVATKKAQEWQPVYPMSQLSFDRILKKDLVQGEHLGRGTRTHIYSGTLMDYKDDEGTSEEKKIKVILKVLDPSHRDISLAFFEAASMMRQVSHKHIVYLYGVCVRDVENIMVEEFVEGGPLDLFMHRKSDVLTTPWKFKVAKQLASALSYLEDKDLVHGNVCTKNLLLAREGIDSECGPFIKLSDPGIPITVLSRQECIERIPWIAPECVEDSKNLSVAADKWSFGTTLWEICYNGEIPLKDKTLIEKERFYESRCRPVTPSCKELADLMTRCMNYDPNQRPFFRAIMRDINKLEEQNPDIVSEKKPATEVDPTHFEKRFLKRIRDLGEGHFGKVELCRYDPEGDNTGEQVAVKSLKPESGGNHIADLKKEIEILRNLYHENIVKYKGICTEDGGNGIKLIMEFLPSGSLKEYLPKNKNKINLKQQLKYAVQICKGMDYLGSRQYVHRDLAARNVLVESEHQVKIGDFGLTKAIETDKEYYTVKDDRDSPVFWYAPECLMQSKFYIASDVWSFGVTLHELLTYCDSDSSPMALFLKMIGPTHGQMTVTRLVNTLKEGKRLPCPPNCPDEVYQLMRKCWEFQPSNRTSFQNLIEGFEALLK
UniProt Q96EP0: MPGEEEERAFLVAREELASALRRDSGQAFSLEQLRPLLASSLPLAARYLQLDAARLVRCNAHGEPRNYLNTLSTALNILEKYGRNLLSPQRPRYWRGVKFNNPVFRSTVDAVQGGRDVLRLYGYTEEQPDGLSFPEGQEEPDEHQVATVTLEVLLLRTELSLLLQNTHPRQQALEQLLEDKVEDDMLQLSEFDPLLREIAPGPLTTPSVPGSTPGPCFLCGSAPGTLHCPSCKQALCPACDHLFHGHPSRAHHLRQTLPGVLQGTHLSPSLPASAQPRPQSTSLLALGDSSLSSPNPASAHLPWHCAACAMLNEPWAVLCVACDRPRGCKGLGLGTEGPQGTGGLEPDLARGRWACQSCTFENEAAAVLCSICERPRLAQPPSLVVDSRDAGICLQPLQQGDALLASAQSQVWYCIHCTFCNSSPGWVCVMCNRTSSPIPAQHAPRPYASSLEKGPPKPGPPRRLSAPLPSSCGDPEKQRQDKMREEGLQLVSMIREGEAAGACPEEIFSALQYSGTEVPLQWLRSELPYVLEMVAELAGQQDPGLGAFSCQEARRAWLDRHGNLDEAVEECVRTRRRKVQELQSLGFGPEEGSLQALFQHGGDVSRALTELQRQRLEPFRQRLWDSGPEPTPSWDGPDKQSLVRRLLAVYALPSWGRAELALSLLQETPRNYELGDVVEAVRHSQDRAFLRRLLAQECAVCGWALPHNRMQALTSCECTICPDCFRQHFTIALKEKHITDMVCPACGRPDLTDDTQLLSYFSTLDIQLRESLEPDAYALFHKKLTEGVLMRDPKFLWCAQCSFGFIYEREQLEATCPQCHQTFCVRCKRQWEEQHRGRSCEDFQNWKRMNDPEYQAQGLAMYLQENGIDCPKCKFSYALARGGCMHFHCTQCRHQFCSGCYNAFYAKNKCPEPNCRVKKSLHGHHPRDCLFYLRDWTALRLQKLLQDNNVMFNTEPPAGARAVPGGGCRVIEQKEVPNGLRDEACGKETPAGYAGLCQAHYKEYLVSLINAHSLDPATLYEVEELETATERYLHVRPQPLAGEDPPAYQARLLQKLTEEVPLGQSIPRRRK
UniProt Q96BN8: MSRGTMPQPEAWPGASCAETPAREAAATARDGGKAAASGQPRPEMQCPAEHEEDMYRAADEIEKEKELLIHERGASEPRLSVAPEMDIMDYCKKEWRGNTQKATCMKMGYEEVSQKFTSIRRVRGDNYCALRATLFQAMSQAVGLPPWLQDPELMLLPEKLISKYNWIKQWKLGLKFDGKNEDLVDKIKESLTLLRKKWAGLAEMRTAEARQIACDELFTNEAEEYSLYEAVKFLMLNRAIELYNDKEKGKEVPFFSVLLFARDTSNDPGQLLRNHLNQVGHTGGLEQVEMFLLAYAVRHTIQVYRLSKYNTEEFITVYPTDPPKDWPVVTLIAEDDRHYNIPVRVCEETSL

Tests used:
[1] = biological target: Myc-STAT1 (UniProt P42224); test: co-IP; both partners tagged and co-transfected in HEK293T cells; lysis buffer 150 mM NaCl, 20 mM Tris-HCl pH 7.4, 0.5 mM EDTA, 1% NP-40; protein G agarose, 4 C; some panels with IFNα (1000 IU/ml, 15 min) or Flag-LUBAC overexpression
[2] = biological target: Myc-STAT1-K511/652R (UniProt P42224); test: as above
[3] = biological target: Myc-STAT1-K511R (UniProt P42224); test: as above
[4] = biological target: Myc-STAT1-K652R (UniProt P42224); test: as above
[5] = biological target: STAT1 with deletion of the TAD domain (amino acids, 703–750) (UniProt P42224); test: as above
[6] = biological target: STAT1-Y701F (UniProt P42224); test: as above
[7] = biological target: T1, HA-IFNAR2 (UniProt P48551); test: pull-down; in vitro binding assay: Flag-STAT1 (WT or DM) immunoprecipitated from HEK293T and eluted with Flag peptides, mixed with HA-IFNAR2 immunoprecipitates (HA antibody) at 4 °C; immunoblot with anti-Flag or anti-HA; both purified
T1 sequence: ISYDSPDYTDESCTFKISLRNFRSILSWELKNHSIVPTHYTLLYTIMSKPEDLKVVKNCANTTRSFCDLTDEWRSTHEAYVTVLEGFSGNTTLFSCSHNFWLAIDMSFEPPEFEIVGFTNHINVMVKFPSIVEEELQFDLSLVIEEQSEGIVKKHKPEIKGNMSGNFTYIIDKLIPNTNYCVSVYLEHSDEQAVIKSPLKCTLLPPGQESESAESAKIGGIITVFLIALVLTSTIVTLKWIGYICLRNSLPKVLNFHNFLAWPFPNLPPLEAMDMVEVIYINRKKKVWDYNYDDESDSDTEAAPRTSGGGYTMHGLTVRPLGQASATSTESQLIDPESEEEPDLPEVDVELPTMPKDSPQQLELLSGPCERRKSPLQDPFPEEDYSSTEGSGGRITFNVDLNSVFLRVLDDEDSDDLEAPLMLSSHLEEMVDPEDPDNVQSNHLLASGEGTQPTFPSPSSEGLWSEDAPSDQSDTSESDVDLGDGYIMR

[8] = biological target: T1, HA-IFNAR2; test: co-IP; both partners tagged and co-transfected in HEK293T cells; lysis buffer 150 mM NaCl, 20 mM Tris-HCl pH 7.4, 0.5 mM EDTA, 1% NP-40; protein G agarose, 4 C; some panels with IFNα (1000 IU/ml, 15 min) or Flag-LUBAC overexpression
[9] = biological target: endogenous STAT1 (human (endogenous in 2fTGH, HEK293T and HeLa)) (UniProt P42224); test: co-IP
[10] = biological target: endogenous JAK1 (human (endogenous in HEK293T and HeLa)) (UniProt P23458); test: co-IP
[11] = biological target: Myc-STAT1-K511/652R (UniProt P42224); test: co-IP; one plate of STAT1-deficient U3A cells cotransfected with HA-IFNAR2, Flag-STAT1-WT and Myc-STAT1-DM, treated with IFNα (1000 IU/ml, 15 min); STAT1 forms pulled down separately with Flag or Myc antibodies, HA-IFNAR2 detected

Flag-HOIP (from UniProt Q96EP0 1-1072) (enzyme)
binding [1]: binds
binding [2]: binds
binding [3]: binds
binding [4]: binds
binding [5]: no binding
binding [6]: binds

Flag-STAT1 (DM) (from UniProt P42224 1-750)
binding [7]: binds

Myc-STAT1-K511/652R (from UniProt P42224 1-750)
binding [8]: binds

Myc-STAT1-K511R (from UniProt P42224 1-750)
binding [8]: binds

Myc-STAT1-K652R (from UniProt P42224 1-750)
binding [8]: binds

OTULIN (from UniProt Q96BN8 1-352) (enzyme)
binding [9]: binds

endogenous HOIP (from UniProt Q96EP0 1-1072) (enzyme)
binding [9]: binds

endogenous STAT1 (from UniProt P42224 1-750)
binding [10]: binds

B1: HA-IFNAR2 (receptor, UniProt P48551 27-515)
chain: ISYDSPDYTDESCTFKISLRNFRSILSWELKNHSIVPTHYTLLYTIMSKPEDLKVVKNCANTTRSFCDLTDEWRSTHEAYVTVLEGFSGNTTLFSCSHNFWLAIDMSFEPPEFEIVGFTNHINVMVKFPSIVEEELQFDLSLVIEEQSEGIVKKHKPEIKGNMSGNFTYIIDKLIPNTNYCVSVYLEHSDEQAVIKSPLKCTLLPPGQESESAESAKIGGIITVFLIALVLTSTIVTLKWIGYICLRNSLPKVLNFHNFLAWPFPNLPPLEAMDMVEVIYINRKKKVWDYNYDDESDSDTEAAPRTSGGGYTMHGLTVRPLGQASATSTESQLIDPESEEEPDLPEVDVELPTMPKDSPQQLELLSGPCERRKSPLQDPFPEEDYSSTEGSGGRITFNVDLNSVFLRVLDDEDSDDLEAPLMLSSHLEEMVDPEDPDNVQSNHLLASGEGTQPTFPSPSSEGLWSEDAPSDQSDTSESDVDLGDGYIMR
binding [11]: binds
